Data taken from publication PMC10700546, “Atg18 oligomer organization in assembled tubes and on lipid membrane scaffolds” (Nature Communications, 2023).
Changes are numbered by the printed parent chain. Results are given in words; binding and its absence hold for the method and conditions named. Some entries that bind do so weakly or less than the wild type. For some of these results: Sequences can lack the tags named with a protein. One block for each binder: values may come before it.

Tests used:
[1] = target: T1, Autophagy-related protein 18 (Atg18), wildtype (Saccharomyces cerevisiae), P43601; test: cryo-EM structure; cryo-electron tomography and subtomogram averaging (26 A); 3 uM Atg18-WT with LUVs (5% PI3,5P2, 95% DOPC) at 0.1 mg/ml; Atg18 dimers between two bilayers; both purified; settings: remark: other sources report otherwise
T1 chain: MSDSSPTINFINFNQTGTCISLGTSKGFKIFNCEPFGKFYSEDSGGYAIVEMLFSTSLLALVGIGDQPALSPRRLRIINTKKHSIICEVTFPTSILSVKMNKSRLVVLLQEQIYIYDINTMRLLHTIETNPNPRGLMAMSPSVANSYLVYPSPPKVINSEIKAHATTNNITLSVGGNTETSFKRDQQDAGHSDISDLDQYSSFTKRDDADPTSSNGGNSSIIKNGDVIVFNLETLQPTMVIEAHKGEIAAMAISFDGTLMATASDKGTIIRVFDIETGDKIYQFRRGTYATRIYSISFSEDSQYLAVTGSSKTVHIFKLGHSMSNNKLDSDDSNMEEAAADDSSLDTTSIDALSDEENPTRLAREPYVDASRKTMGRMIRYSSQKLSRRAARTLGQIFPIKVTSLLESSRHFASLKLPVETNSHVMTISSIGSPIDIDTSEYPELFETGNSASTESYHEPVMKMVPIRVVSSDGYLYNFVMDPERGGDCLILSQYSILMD

[2] = target: T1, Autophagy-related protein 18 (Atg18), …; test: co-sedimentation; pelletation assay: 100 uM Atg18 dialysed into tube buffer (20 mM HEPES, 100 mM KAc, 1 mM DTT, pH 7.2), 120 min at 50,000 x g, 18 C; input, supernatant and pellet on SDS-PAGE; self-assembly into tubes; both purified; settings: remark: other sources report otherwise
[3] = target: T1, Autophagy-related protein 18 (Atg18), …; test: negative stain EM; Atg18 dialysed into low-salt tube buffer, tubes or pellet fractions imaged after 2% uranyl acetate staining; self-assembly into tubes; both purified; settings: remark: other sources report otherwise
[4] = target: T1, Autophagy-related protein 18 (Atg18), …; test: cryo-EM structure; helical reconstruction of Atg18 tubes; 20 uM tube solution in tube buffer (20 mM HEPES, 100 mM KAc, 1 mM DTT, pH 7.2); self-assembly into a helical lattice; both purified; settings: remark: other sources report otherwise
[5] = target: Autophagy-related protein 18 (Atg18), wildtype (Saccharomyces cerevisiae) (UniProt P43601); test: condition: only with 4x molar excess of diC8-PI3P, diC8-PI(3,5)P2 or diC8-PI(4,5)P2 added before the low-salt buffer change; negative stain EM; Atg18-WT with soluble diC8-PI3P, diC8-PI(3,5)P2 or diC8-PI(4,5)P2 in 4x molar excess, added in gel filtration buffer before dialysis into low-salt tube buffer; both purified
[6] = target: Atg18-FGGG (Saccharomyces cerevisiae) (UniProt P43601); test: co-sedimentation; pelletation assay: 100 uM Atg18 dialysed into tube buffer (20 mM HEPES, 100 mM KAc, 1 mM DTT, pH 7.2), 120 min at 50,000 x g, 18 C; input, supernatant and pellet on SDS-PAGE; self-assembly into tubes; both purified
[7] = target: Atg18-FGGG (Saccharomyces cerevisiae) (UniProt P43601); test: negative stain EM; Atg18 dialysed into low-salt tube buffer, tubes or pellet fractions imaged after 2% uranyl acetate staining; self-assembly into tubes; both purified

- binding [1]: binds
- binding [2]: binds
- binding [3]: binds
- binding [4]: binds
B1: Autophagy-related protein 18 (Atg18), wildtype, P43601 1-500 (natural protein)
chain: T1 chain

- binding [5]: no binding
B2: Autophagy-related protein 18 (Atg18), wildtype (protein, UniProt P43601 1-500)
chain: T1 chain

- binding [6]: no binding (tested: 100 µM)
- binding [7]: no binding
B3: Atg18-FGGG (protein, UniProt P43601 1-500)
chain: T1 chain with R285G, R286G
